# Laboratory results reported in the supplement of paper PMC8728848.
# The other results are listed elsewhere or left out.
# Assays:
# Assay in all cases: glycan array binding signal (z-score within array); higher = stronger binding
# Details in all cases: glycan notation: IUPAC condensed, linker removed
# [1] = biological target: Fuc(a1-2)[Gal(a1-3)]Gal(b1-4)GlcNAc(b1-2)Man(a1-3)[Fuc(a1-2)[Gal(a1-3)]Gal(b1-4)GlcNAc(b1-2)Man(a1-6)]Man(b1-4)GlcNAc(b1-4)[Fuc(a1-6)]GlcNAc
# Method in brief: (§1)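 Columns mapping to the same glycan were averaged after glycan names were converted to IUPAC-condensed notation. The data come from 3228 arrays in the Consortium for Functional Glycomics database, limited to those with an available protein sequence. Binding is reported as a within-array Z-score averaged across arrays of one protein sequence and across linkers.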
# [2] = biological target: Fuc(a1-2)[Gal(a1-3)]Gal(b1-4)GlcNAc(b1-3)GalNAc
# Method in brief: as §1
# [3] = biological target: Fuc(a1-2)[Gal(a1-3)]Gal(b1-4)GlcNAc(b1-3)[Fuc(a1-2)[Gal(a1-3)]Gal(b1-4)GlcNAc(b1-6)]GalNAc
# Method in brief: as §1
# [4] = biological target: Fuc(a1-2)[Gal(a1-3)]Gal(b1-4)GlcNAc(b1-6)GalNAc
# Method in brief: as §1
# [5] = biological target: Fuc(a1-2)[Gal(a1-3)]Gal(b1-4)[Fuc(a1-3)]Glc
# Method in brief: as §1
# [6] = biological target: Fuc(a1-2)[Gal(a1-3)]Gal(b1-4)[Fuc(a1-3)]GlcNAc
# Method in brief: as §1
# [7] = biological target: Fuc(a1-2)[Gal(a1-3)]Gal(b1-4)[Fuc(a1-3)]GlcNAc(b1-3)GalNAc
# Method in brief: as §1
# [8] = biological target: Fuc(a1-2)[Gal(a1-4)]Gal(b1-4)GlcNAc
# Method in brief: as §1
# [9] = biological target: Fuc(a1-2)[GalNAc(a1-3)]Gal
# Method in brief: as §1
# [10] = biological target: Fuc(a1-2)[GalNAc(a1-3)]Gal(b1-3)GalNAc(a1-3)[Fuc(a1-2)]Gal(b1-4)GlcNAc
# Method in brief: as §1
# [11] = biological target: Fuc(a1-2)[GalNAc(a1-3)]Gal(b1-3)GalNAc(b1-3)Gal(a1-4)Gal(b1-4)Glc
# Method in brief: as §1
# [12] = biological target: Fuc(a1-2)[GalNAc(a1-3)]Gal(b1-3)GlcNAc
# Method in brief: as §1
# [13] = biological target: Fuc(a1-2)[GalNAc(a1-3)]Gal(b1-3)GlcNAc(b1-2)Man(a1-3)[Fuc(a1-2)[GalNAc(a1-3)]Gal(b1-3)GlcNAc(b1-2)Man(a1-6)]Man(b1-4)GlcNAc(b1-4)GlcNAc
# Method in brief: as §1
# [14] = biological target: Fuc(a1-2)[GalNAc(a1-3)]Gal(b1-3)GlcNAc(b1-2)Man(a1-3)[Fuc(a1-2)[GalNAc(a1-3)]Gal(b1-3)GlcNAc(b1-2)Man(a1-6)]Man(b1-4)GlcNAc(b1-4)[Fuc(a1-6)]GlcNAc
# Method in brief: as §1
# [15] = biological target: Fuc(a1-2)[GalNAc(a1-3)]Gal(b1-3)GlcNAc(b1-3)GalNAc
# Method in brief: as §1
# [16] = biological target: Fuc(a1-2)[GalNAc(a1-3)]Gal(b1-3)GlcNAc(b1-6)GalNAc
# Method in brief: as §1
# [17] = biological target: Fuc(a1-2)[GalNAc(a1-3)]Gal(b1-4)Glc
# Method in brief: as §1
# [18] = biological target: Fuc(a1-2)[GalNAc(a1-3)]Gal(b1-4)GlcNAc
# Method in brief: as §1
# [19] = biological target: Fuc(a1-2)[GalNAc(a1-3)]Gal(b1-4)GlcNAc(b1-2)Man
# Method in brief: as §1
# [20] = biological target: Fuc(a1-2)[GalNAc(a1-3)]Gal(b1-4)GlcNAc(b1-2)Man(a1-3)[Fuc(a1-2)[GalNAc(a1-3)]Gal(b1-4)GlcNAc(b1-2)Man(a1-6)]Man(b1-4)GlcNAc(b1-4)GlcNAc
# Method in brief: as §1
# [21] = biological target: Fuc(a1-2)[GalNAc(a1-3)]Gal(b1-4)GlcNAc(b1-2)Man(a1-3)[Fuc(a1-2)[GalNAc(a1-3)]Gal(b1-4)GlcNAc(b1-2)Man(a1-6)]Man(b1-4)GlcNAc(b1-4)[Fuc(a1-6)]GlcNAc
# Method in brief: as §1
# [22] = biological target: Fuc(a1-2)[GalNAc(a1-3)]Gal(b1-4)GlcNAc(b1-3)Gal(b1-4)GlcNAc
# Method in brief: as §1
# [23] = biological target: Fuc(a1-2)[GalNAc(a1-3)]Gal(b1-4)GlcNAc(b1-3)Gal(b1-4)GlcNAc(b1-3)Gal(b1-4)GlcNAc
# Method in brief: as §1
# [24] = biological target: Fuc(a1-2)[GalNAc(a1-3)]Gal(b1-4)GlcNAc(b1-3)GalNAc
# Method in brief: as §1
# [25] = biological target: Fuc(a1-2)[GalNAc(a1-3)]Gal(b1-4)GlcNAc(b1-3)[Fuc(a1-2)[GalNAc(a1-3)]Gal(b1-4)GlcNAc(b1-6)]GalNAc
# Method in brief: as §1
# [26] = biological target: Fuc(a1-2)[GalNAc(a1-3)]Gal(b1-4)GlcNAc(b1-6)GalNAc
# Method in brief: as §1
# [27] = biological target: Fuc(a1-2)[GalNAc(a1-3)]Gal(b1-4)[Fuc(a1-3)]GlcNAc
# Method in brief: as §1
# [28] = biological target: Fuc(a1-2)[GalNAc(a1-3)]Gal(b1-4)[Fuc(a1-3)]GlcNAc(b1-3)GalNAc
# Method in brief: as §1
# [29] = biological target: Fuc(a1-2)[GalNAc(a1-4)]Gal(b1-4)GlcNAc
# Method in brief: as §1
# [30] = biological target: Fuc(a1-2)[GalNAc(b1-3)]Gal
# Method in brief: as §1
# Fuc(a1-3)GlcNAc = biological target: Fuc(a1-3)GlcNAc
# Method in brief: as §1
# [31] = biological target: Fuc(a1-3)[Gal(b1-4)]Glc6S
# Method in brief: as §1
# [32] = biological target: Fuc(a1-3)[Gal(b1-4)]GlcNAc
# Method in brief: as §1
# [33] = biological target: Fuc(a1-3)[Gal(b1-4)]GlcNAc(b1-2)Man
# Method in brief: as §1
# [34] = biological target: Fuc(a1-3)[Gal(b1-4)]GlcNAc(b1-2)Man(a1-3)[Fuc(a1-3)[Gal(b1-4)]GlcNAc(b1-2)Man(a1-6)]Man(b1-4)GlcNAc(b1-4)GlcNAc
# Method in brief: as §1
# [35] = biological target: Fuc(a1-3)[Gal(b1-4)]GlcNAc(b1-2)Man(a1-3)[Fuc(a1-3)[Gal(b1-4)]GlcNAc(b1-2)Man(a1-6)]Man(b1-4)GlcNAc(b1-4)[Fuc(a1-6)]GlcNAc
# Method in brief: as §1
# [36] = biological target: Fuc(a1-3)[Gal(b1-4)]GlcNAc(b1-3)Gal(b1-3)[Fuc(a1-4)]GlcNAc
# Method in brief: as §1
# [37] = biological target: Fuc(a1-3)[Gal(b1-4)]GlcNAc(b1-3)Gal(b1-4)[Fuc(a1-3)]GlcNAc
# Method in brief: as §1
# [38] = biological target: Fuc(a1-3)[Gal(b1-4)]GlcNAc(b1-3)Gal(b1-4)[Fuc(a1-3)]GlcNAc(b1-3)Gal(b1-4)[Fuc(a1-3)]GlcNAc
# Method in brief: as §1
# [39] = biological target: Fuc(a1-3)[Gal(b1-4)]GlcNAc(b1-3)GalNAc
# Method in brief: as §1
# [40] = biological target: Fuc(a1-3)[Gal(b1-4)]GlcNAc(b1-6)GalNAc
# Method in brief: as §1
# [41] = biological target: Fuc(a1-3)[Gal(b1-4)]GlcNAc(b1-6)[Gal(b1-3)GlcNAc(b1-3)]Gal(b1-4)Glc
# Method in brief: as §1
# [42] = biological target: Fuc(a1-3)[Gal(b1-4)]GlcNAc6S
# Method in brief: as §1
# [43] = biological target: Fuc(a1-3)[Gal3S(b1-4)]Glc
# Method in brief: as §1
# [44] = biological target: Fuc(a1-3)[Gal3S(b1-4)]GlcNAc
# Method in brief: as §1
binder,measurement,setting,value
PfulAvr4 (Pseudocercospora fuligena) (protein) HHHHHHDYKDDDDKTYVQDKTPAFVCPAADIKTTKCLGPKDCLYPSPKTCNGYIQCSPADDSYLTGIIHEMPCPSGLLWNDNKKWCDWPENTTCGLVKSAGATEVDATKQGPTPGKYHG,glycan array binding signal (z-score),[1],-0.144
same,glycan array binding signal (z-score),[2],-0.068
same,glycan array binding signal (z-score),[3],0.392
same,glycan array binding signal (z-score),[4],-0.112
same,glycan array binding signal (z-score),[5],-0.172
same,glycan array binding signal (z-score),[6],-0.096
same,glycan array binding signal (z-score),[7],-0.074
same,glycan array binding signal (z-score),[8],-0.096
same,glycan array binding signal (z-score),[9],-0.132
same,glycan array binding signal (z-score),[10],1.31
same,glycan array binding signal (z-score),[11],0.58
same,glycan array binding signal (z-score),[12],-0.064
same,glycan array binding signal (z-score),[13],-0.019
same,glycan array binding signal (z-score),[14],-0.104
same,glycan array binding signal (z-score),[15],-0.06
same,glycan array binding signal (z-score),[16],-0.192
same,glycan array binding signal (z-score),[17],-0.084
same,glycan array binding signal (z-score),[18],-0.151
same,glycan array binding signal (z-score),[19],-0.126
same,glycan array binding signal (z-score),[20],-0.027
same,glycan array binding signal (z-score),[21],-0.108
same,glycan array binding signal (z-score),[22],-0.209
same,glycan array binding signal (z-score),[23],-0.172
same,glycan array binding signal (z-score),[24],-0.069
same,glycan array binding signal (z-score),[25],-0.133
same,glycan array binding signal (z-score),[26],-0.129
same,glycan array binding signal (z-score),[27],-0.118
same,glycan array binding signal (z-score),[28],-0.034
same,glycan array binding signal (z-score),[29],-0.135
same,glycan array binding signal (z-score),[30],-0.09
same,glycan array binding signal (z-score),Fuc(a1-3)GlcNAc,-0.152
same,glycan array binding signal (z-score),[31],0.087
same,glycan array binding signal (z-score),[32],-0.091
same,glycan array binding signal (z-score),[33],-0.099
same,glycan array binding signal (z-score),[34],-0.13
same,glycan array binding signal (z-score),[35],-0.065
same,glycan array binding signal (z-score),[36],-0.081
same,glycan array binding signal (z-score),[37],0.018
same,glycan array binding signal (z-score),[38],-0.125
same,glycan array binding signal (z-score),[39],0.04
same,glycan array binding signal (z-score),[40],0.008
same,glycan array binding signal (z-score),[41],-0.036
same,glycan array binding signal (z-score),[42],0.177
same,glycan array binding signal (z-score),[43],-0.078
same,glycan array binding signal (z-score),[44],-0.121
